Reference: the supplement of paper PMC10369915
This is one part of the list. No stated cut-off is given here; in the data, active = 3.2 or more and inactive = the rest. The signal is at background level for most entries.

How the values were obtained:
Experiment in all cases: enrichment score (SH2-bound / input frequency) (ratio); bacterial display of known human phosphotyrosine sites (pTyr-Var adds point mutants) read by sequencing; higher = stronger binding; tyrosines were phosphorylated by kinases first
Settings in all cases: peptide library: pTyr-Var
[1] = biological target: SHP2 C-SH2 domain E139D
[2] = biological target: SHP2 C-SH2 domain wild-type
[3] = biological target: SHP2 N-SH2 domain L43F
[4] = biological target: SHP2 N-SH2 domain T42A
[5] = biological target: SHP2 N-SH2 domain T52S
[6] = biological target: SHP2 N-SH2 domain wild-type
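Further: displayed peptides selected on beads carrying the immobilized SH2 domain, with library peptides lacking any tyrosine serving as negative controls.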

Binder	enrichment score [1]	enrichment score [2]	enrichment score [3]	enrichment score [4]	enrichment score [5]	enrichment score [6]
CTTSHYNYMCN [TP53_Y234_I232S]	inactive: 2.8	active: 4.44	inactive: 1.64	inactive: 1.47	inactive: 1.58	inactive: 1.41
CTTIPYNFMCN [TP53_Y234_H233P_YF]	inactive: 2.29	inactive: 1.97	inactive: 2.25	inactive: 2.12	inactive: 2.13	inactive: 1.66
CTTNHYNFMCN [TP53_Y234_I232N_YF]	inactive: 2.29	inactive: 2.42	inactive: 2.16	inactive: 1.58	inactive: 2.23	inactive: 1.52
CTTIHYHYMCN [TP53_Y234_N235H]	active: 3.22	inactive: 3.07	inactive: 3.07	inactive: 2.39	inactive: 2.62	inactive: 2.55
CTTIHYNFVCN [TP53_Y234_M237V_YF]	active: 5.02	active: 3.91	active: 4.03	inactive: 2.93	active: 3.8	active: 3.69
CTTLHYNFMCN [TP53_Y234_I232L_YF]	active: 3.52	active: 3.38	active: 3.56	inactive: 2.69	active: 3.25	inactive: 2.66
CTTNHYNYMCN [TP53_Y234_I232N]	inactive: 2.88	active: 4.43	inactive: 1.79	inactive: 1.65	inactive: 1.78	inactive: 1.44
CTTTHYNYMCN [TP53_Y234_I232T]	inactive: 2.74	active: 4.54	inactive: 1.59	inactive: 1.27	inactive: 1.54	inactive: 1.41
CTTTHYNFMCN [TP53_Y234_I232T_YF]	inactive: 2.99	inactive: 2.94	inactive: 2.57	inactive: 2.22	inactive: 2.9	inactive: 2.45
CTTIHYNFRCN [TP53_Y234_M237R_YF]	active: 3.4	inactive: 2.64	active: 3.22	inactive: 2.69	inactive: 3.02	inactive: 2.9
CTTIHYMFMCN [TP53_Y234_N235M_YF]	active: 3.71	active: 4.17	active: 3.83	active: 3.39	active: 3.41	active: 3.71
CTTIHYNYLCN [TP53_Y234_M237L]	active: 5.08	active: 5.7	active: 3.43	active: 3.46	inactive: 3.13	active: 3.28
CTTIRYNYMCN [TP53_Y234_H233R]	active: 4.8	active: 3.82	active: 4	active: 3.29	active: 3.85	active: 3.56
CTTIHYNYVCN [TP53_Y234_M237V]	active: 5.52	active: 6.52	inactive: 3.11	inactive: 2.69	inactive: 3.15	inactive: 2.87
CTTIHYIFMCN [TP53_Y234_N235I_YF]	inactive: 2.47	inactive: 2.39	inactive: 2.19	inactive: 2.11	inactive: 2.22	inactive: 2.35
CTTIYYNYMCN [TP53_Y234_H233Y]	active: 4.98	active: 4.11	active: 4.48	inactive: 3.17	active: 3.87	active: 4.31
CTTIHYDFMCN [TP53_Y234_N235D_YF]	inactive: 3.19	active: 3.57	active: 3.5	inactive: 2.69	active: 3.31	inactive: 3.09
CTTIHYSYMCN [TP53_Y234_N235S]	active: 3.43	active: 4.01	inactive: 3.13	inactive: 2.54	inactive: 3	inactive: 2.87
CTTIHYHFMCN [TP53_Y234_N235H_YF]	active: 3.69	active: 3.35	active: 3.45	inactive: 2.65	inactive: 3.1	inactive: 3.15
CTTIHYNFICN [TP53_Y234_M237I_YF]	active: 4.12	active: 3.46	active: 3.66	inactive: 2.68	active: 3.37	inactive: 3.03
